These results are taken from PubChem BioAssay (NCI).

Some test systems named below: MCF7 breast; SW-620 colon; NCI/ADR-RES ovarian; SK-MEL-28 melanoma; SK-OV-3 ovarian; K-562 leukemia; OVCAR-8 ovarian; 786-0 renal; A549 NSCLC; ACHN renal; CCRF-CEM leukemia; KM12 colon; MALME-3M melanoma; SF-539 CNS; SR leukemia; DMS 273 small cell lung; MOLT-4 leukemia; UO-31 renal.
Common to all, as to test: NCI anticancer screen, dose series, 48 h

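Method: 48-hour compound exposure of cells in 96-well plates, five concentrations, linear interpolation of endpoints. Abbreviation: GI50, concentration required for 50% inhibition of growth.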 A number of entries come with more than one value. This is not the full list of results. The source may hold further records. For some assays here: Records of one sample usually come from different ranges of test concentrations, which the source does not state; some values may only mark the edge of a range. For some assays here: Values given together are repeats across runs, samples, wells, individuals or studies. What stands in brackets tells the records apart. A, B and so on number the origins entry by entry.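 The concentration for full growth arrest is given as TGI.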 Bounds are passed on as bounds.

For `Nc1nc(Cl)nc2c1ncn2[C@@H]1O[C@H](COS(N)(=O)=O)[C@@H](O)[C@H]1O`, the TGI was 162 nM and 11.5 µM with MCF7 breast; 196 nM and 10.2 µM in the test with SW-620 colon.
`O=C1C=C(OCCCl)C(=O)c2c(O)ccc(O)c21`: the TGI was 7.26 µM and 74.4 µM with NCI/ADR-RES ovarian; 316 nM and 3.97 µM in the test with SK-MEL-28 melanoma; 3.31 µM and 48.9 µM in the test on SK-OV-3 ovarian.
On to `COc1cc2c3cc1Oc1c(OC)c(OC)cc4c1C(Cc1ccc(cc1)Oc1cc(ccc1O)CC3N(C)CC2)N(C)CC4` (stereo not drawn), for which the TGI in the test on K-562 leukemia is > 100 µM [sample A] and 5.01 µM [sample B]. Further, in the test on OVCAR-8 ovarian, the GI50 is > 100 µM [sample A, 1 test] and 9.41 µM [sample B, 1 test].
As to `CCN(CC)CCC(=O)O[C@H]1CC[C@H](CC(C)[C@H]2CC(=O)C(C)C=C(C)[C@H](OC(=O)CCN(CC)CC)C(OC)C(=O)[C@@H](C)CC(C)/C=C/C=C/C=C(C)C(OC)CC3CC[C@H](C)[C@](O)(O3)C(=O)C(=O)N3CCCCC3C(=O)O2)CC1OC` (stereo partly drawn), the GI50 was 209 nM and 14.5 nM in the test with 786-0 renal; 145 nM and 4.85 nM in the test with A549 NSCLC; 97.7 nM and 1.05 µM in the test on ACHN renal; 0.67 nM and 1.11 µM in the test with CCRF-CEM leukemia; 1.25 µM [1 test] and 45.2 nM [mean of 8 tests] in the test with K-562 leukemia; 34.1 nM and 1.72 µM with KM12 colon. In addition, the GI50 in the test on MCF7 breast was 76.8 nM and 1.08 µM; with NCI/ADR-RES ovarian, 39 nM and 1.24 µM; with SF-539 CNS, 208 nM and 11.6 nM; with SR leukemia, 51.1 nM and 1.07 µM. Further, in the test on MALME-3M melanoma, the TGI is 77.1 nM and 1.44 µM.
Consider `C(=N/NC1=NCCN1)/c1c2ccccc2c(/C=N\NC2=NCCN2)c2ccccc12`, for which the TGI was 841 nM and 11 µM in the test with DMS 273 small cell lung; 57.8 nM, 330 nM, 1.08 µM with MOLT-4 leukemia; 9.19 µM and 169 µM in the test with NCI/ADR-RES ovarian; 2.03 µM [mean of 2 tests] and 1.06 µM [mean of 4 tests] and 13.2 µM [mean of 7 tests] in the test with SW-620 colon; 5.33 µM [mean of 3 tests] and 68.8 µM [mean of 4 tests] and 145 µM [mean of 5 tests] with UO-31 renal.
